# Data as given in paper PMC4336329 (PLoS ONE, 2015).
# About 14,000 (4.5%) of roughly 310,000 compounds showed an effect of 50% or more. Effects have a minus sign here. The list shows a part of the results.
# Target: human ether-à-go-go-related gene (hERG) potassium channel (human, UniProt Q12809)
# Test: primary screen, population patch clamp on CHO cells stably expressing hERG
# 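Also: peak tail current of the secondary pulse compared with the same well before compound.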
# human ether-à-go-go-related gene (hERG) potassium channel, sequence (Q12809 whole entry, looked up): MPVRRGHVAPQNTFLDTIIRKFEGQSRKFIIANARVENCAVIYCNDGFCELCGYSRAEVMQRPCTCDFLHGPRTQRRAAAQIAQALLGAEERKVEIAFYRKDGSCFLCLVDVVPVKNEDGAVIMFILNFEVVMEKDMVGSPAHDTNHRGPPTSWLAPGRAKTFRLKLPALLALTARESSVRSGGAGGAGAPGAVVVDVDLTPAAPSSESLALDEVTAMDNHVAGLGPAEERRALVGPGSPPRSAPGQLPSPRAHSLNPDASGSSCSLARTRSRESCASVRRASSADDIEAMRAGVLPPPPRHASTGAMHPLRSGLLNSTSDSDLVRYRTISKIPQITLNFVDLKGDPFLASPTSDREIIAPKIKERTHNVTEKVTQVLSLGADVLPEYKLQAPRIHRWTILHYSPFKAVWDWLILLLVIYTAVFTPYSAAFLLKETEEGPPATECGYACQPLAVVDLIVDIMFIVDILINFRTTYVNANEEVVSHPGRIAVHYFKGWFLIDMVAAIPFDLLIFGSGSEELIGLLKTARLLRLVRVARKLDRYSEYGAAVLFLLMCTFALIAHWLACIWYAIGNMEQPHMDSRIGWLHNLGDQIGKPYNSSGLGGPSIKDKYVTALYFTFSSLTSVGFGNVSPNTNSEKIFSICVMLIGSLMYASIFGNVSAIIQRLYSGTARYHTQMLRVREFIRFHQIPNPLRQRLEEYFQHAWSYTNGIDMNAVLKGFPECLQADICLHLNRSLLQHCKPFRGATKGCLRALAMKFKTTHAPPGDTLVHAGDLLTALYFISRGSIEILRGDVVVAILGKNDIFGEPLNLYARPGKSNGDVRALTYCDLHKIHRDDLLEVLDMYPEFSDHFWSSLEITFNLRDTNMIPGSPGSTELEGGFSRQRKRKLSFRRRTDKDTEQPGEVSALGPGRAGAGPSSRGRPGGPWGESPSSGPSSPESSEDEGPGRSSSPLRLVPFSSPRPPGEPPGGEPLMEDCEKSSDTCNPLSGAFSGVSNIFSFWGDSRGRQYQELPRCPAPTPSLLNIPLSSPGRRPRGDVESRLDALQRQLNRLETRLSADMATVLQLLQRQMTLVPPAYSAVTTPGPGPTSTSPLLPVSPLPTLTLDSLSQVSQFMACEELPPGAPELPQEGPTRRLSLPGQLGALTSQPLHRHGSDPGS
row,SMILES,"hERG current change (%, negative = inhibition) at 10uM"
1,CCOC(=O)c1ccc(NC(=O)c2cccc(S(=O)(=O)N3CCN(C(C)=O)CC3)c2)cc1,-15.3%
2,CN(c1ccccc1)S(=O)(=O)c1ccc(Cl)c(C(=O)OCC(=O)N2CCOCC2)c1,-28.5%
3,CCN(CC(=O)Nc1ccccc1OC)C(=O)/C=C/c1cccs1,-6.54%
4,CCCNC(=O)Cn1c(=O)n(CC(=O)N2CCCCC2)c(=O)c2sccc21,17.1%
5,Nc1cccc2c1C(=O)N(Cc1nnc(-c3ccccc3Br)o1)C2=O,0.2%
6,CN(C)N1C(N)=C(C#N)C(c2ccc(Br)cc2)C2=C1CC(C)(C)CC2=O (stereo not shown),28.7%
7,O=[N+]([O-])c1ccc(O)c(/C=N/Nc2nn[nH]n2)c1,21.5%
8,C=CCN(CC=C)S(=O)(=O)c1ccc2nc(NC(=O)C(C)C)sc2c1,-19.9%
9,COc1ccccc1/C=C/CN1CCC(CO)(Cc2ccccc2)CC1,-37.9%
10,O=S(=O)(c1ccc(-c2ccon2)s1)N1CCOCC1,6.48%
11,O=C(Nc1ccc(F)c(Cl)c1)c1cc(-c2ccco2)on1,1.11%
12,COc1ccc(/C=C(\C#N)C(=O)OCC(=O)NCc2ccc(Cl)cc2)cc1,2.84%
13,COc1cccc(OCC(=O)NNC(=O)c2ccc(-c3ccccc3)cc2)c1,-5.49%
14,CC(C)c1ccc(N2C(=O)CC(Sc3ncn[nH]3)C2=O)cc1 (stereo not shown),13.9%
15,CCOc1ccc2nc(NC(=O)c3cc([N+](=O)[O-])ccc3N3CCOCC3)sc2c1,3.68%
16,COC(=O)C1CCN(C2CC(=O)N(c3cc(C)cc(C)c3)C2=O)CC1 (stereo not shown),1.73%
17,CCC(C(=O)Nc1c(C)cc(C)cc1C)N1CCCCCC1 (stereo not shown),2.63%
18,N#CC1=C(N)C(C#N)(C#N)C(c2ccncc2)C2CN(C(=O)OCc3ccccc3)CC=C12 (stereo not shown),0.872%
19,CC1CCCCN1CCCNC(=O)c1ccc2c(=O)n(CCc3ccccc3)c(=O)[nH]c2c1 (stereo not shown),-19.6%
20,CN(C)S(=O)(=O)N1CCN(C(=O)c2cccs2)CC1,7.17%
21,Cc1ccc(/C=N/NC(=O)c2ccc(-c3ccccc3)cc2)o1,-9.83%
22,Cc1occc1C(=O)N/N=C/c1c[nH]c2ccccc12,-3.53%

row,SMILES,"hERG current change (%, negative = inhibition) at 10uM"
1,CCN(CC)c1ccc(NC(=O)c2ccccc2)cc1S(=O)(=O)Nc1ccccc1OC,0.622%
2,Cc1ccc(C)c2sc(N)nc12,22.6%
3,O=C(O)C1CC=CCC1C(=O)Nc1cccc(C(=O)N2CCCCC2)c1 (stereo not shown),-5.25%
4,Cc1ccc(NC(=O)C2CCCN(S(=O)(=O)c3c(C)noc3C)C2)cc1 (stereo not shown),10.2%
5,CC(C)c1nnc(NC(=O)C2CCCN2C(=O)Nc2ccc(F)cc2)s1 (stereo not shown),1.71%
6,C/C(=N\NS(=O)(=O)c1ccccc1)c1ccc2c(c1)OCO2,-3.88%
7,Cc1ccc(S(=O)(=O)N(Cc2ccccc2)c2ccccc2C(=O)NCc2cccnc2)cc1,-33.2%
8,CCn1cnc2c1c(=O)n(CC(=O)N1CCc3ccccc31)c(=O)n2Cc1ccccc1,17.8%
9,CN(C)c1ccc(-c2noc(C3CCN(S(=O)(=O)c4cccc(C(=O)O)c4)CC3)n2)cc1,9.1%
10,CCCn1c(NC(=O)c2cccc(S(=O)(=O)N3CCCC3)c2)nc2ccccc21,-28.8%
11,O=C(Nc1ccc(OCc2ccccc2)cc1)Nc1ccccc1C(=O)NCCCN1CCOCC1,1.41%
12,CCCCN(C(=O)CSCC(=O)Nc1ccc(OC)cc1)c1c(N)n(Cc2ccccc2)c(=O)[nH]c1=O,1.51%
13,CC(C)(C)c1cc(NC(=O)COC(=O)C2CC2)n(-c2ccccc2)n1,-13%
14,Cc1ccc(C)c(S(=O)(=O)N2CCCC2CNC(=O)C(=O)NC2CC2)c1 (stereo not shown),-0.659%
15,COC(=O)C1=C(c2c(C)noc2C)C[C@@H]2CC[C@H]1N2C(=O)NC1Cc2ccccc2C1,-9.79%
16,Cc1ccc2[nH]c3c(N4CCN(Cc5ccccc5)CC4)ncnc3c2c1,-72.3%
17,N/C(Cc1cccs1)=N\OC(=O)COc1ccccc1,3.16%
18,N#CCCn1cc(/C=N/NC(N)=S)c(-c2ccc(-c3ccccc3)cc2)n1,8%
19,CC(C)(C)OC(=O)NCCCC[C@H](NC(=O)c1nc[nH]c1C(=O)N1CCc2ccccc2C1)C(=O)OC(C)(C)C,-8.58%
20,O=c1[nH]c(Nc2ccc3c(c2)OCCO3)nnc1Cc1ccc(Cl)cc1,33%
21,CCCN1C2CCCC1CC(NC(=O)Nc1ccc(C(C)C)cc1)C2 (stereo not shown),12.8%
